The values that follow come from the supplement of paper PMC11417369.

Some of the results follow.

For this assay, the system named is PfHDP1 homeodomain (GST-tagged). Briefly: gcPBM binding intensity (ln(normalized median fluorescence intensity)); higher = stronger DNA binding. The essentials:
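Using an Agilent 4 × 180k array, primer-extended double-stranded 36-bp intergenic genomic probes and negative controls were exposed for 1 h to GST-fused P. falciparum DNA-binding domains expressed in E. coli. Binding was carried out in 1× PBS with 1% milk, 0.2 mg/ml BSA, 0.5% salmon testes DNA and 0.03% Triton X-100, and protein was detected with Alexa488 anti-GST antibody and a 488 nm scan. Binding intensity is the highest Masliner-normalised natural-log median intensity across replicate spots of either probe orientation.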
For the sequence “ATATTTATTTATATGTGTACTTATGTTTATATAAAA [XGTACX_site4250]”, the “gcPBM binding intensity (ln)” value worked out at 6.51. The figure for “AGTGTTAAAAATGAGGGTACATATAAAATACAGTTC [XGTACX_site457]” is 6.42; for “ACAGGATTGGTTCAAACACACATATTATATGACTAT [CACACA_site4536]” it is 6.45; for “TAATCATTTTAGCTTACACACAAAATTTGGTTATAA [CACACA_site5604]” it is 6.29. Next, “TTTCTTTTTTTTTTTTGTACATATTTTAATTATTTT [XGTACX_site8676]”: 6.95; “TATTATATATATAACTGTACGTTTATAATATAAAAA [XGTACX_site3778]”: 6.28; “TATTTTAATTAATATACACACGCTTATATATATATA [CACACA_site7909]”: 8.8. Next, “TACAAACTATGATGCACACATATATATCTGTATCCA [CACACA_site4809]”: 9.63.

As for “AAGCTTTGGTGTTATGCATGCAATTAAACTATTAGT [TGCATGCA_site277]”, the “gcPBM binding intensity (ln)” value amounted to 6.91.

With “AATAATATATAATAATGTACAAAAAAAAAAAAAAAA [XGTACX_site4158]”, the “gcPBM binding intensity (ln)” value came out at 6.51. The figure for “TTTTATTTTTTAGTAGTACACACTTTTTGTACCTTT [CACACA_site599]” is 6.6; for “AGTTTTATATAAGCTTGTACTTAATATTATTAAGTA [XGTACX_site5919]” it is 6.59; for “CAAACAAACGGACACACACACACACCCAAAAATGAT [CACACA_site5363]” it is 6.77.

In the case of “AAAAAAAAAAATCGCTGTACTTCTAAAGGTGTGTTA [XGTACX_site843]”, the “gcPBM binding intensity (ln)” value was found to be 6.11. The figure for “TTTGATAAATTATACACACACAATATATATAAAATA [CACACA_site2023]” is 6.66; for “ACGGACTTAAAATACACACACACCAAAAAAAAAAAA [CACACA_site7304]” it is 6.59. The figure for “ATATATACTTATATTTGTACACAAAGGTATCTCTAG [XGTACX_site3805]” is 6.4. Take “GGAATAATAAAATTATGTACATAAGAATCATATACT [XGTACX_site6810]”: the “gcPBM binding intensity (ln)” value came out at 6.45. Next, “AAATAATACCAAATGTGTACTTATTTCACTAATAGA [XGTACX_site7571]”: 6.29. The figure for “AAAAGATAAAAAGAAGTGCATAATAGGAACAAATAT [GTGCAC_site9717]” is 9.22. Next, “TATATGTGGGTTTTTTTTATGTGTTTTTCTTTTTTT [CACACA_negctrl_site936]”: 7.04; “CATTTCATTAATAAATGTACTTGTGAAGAGAAAAAG [XGTACX_site3115]”: 6.54. On to “ACAAAATTTACAAAATGTACAAAATATACAAAATGT [XGTACX_site3543]”, for which the “gcPBM binding intensity (ln)” value is 6.22. In the case of “ATTTATATTTAATATACACACATTATTTTTTTATAT [CACACA_site574]”, the “gcPBM binding intensity (ln)” value amounted to 6.86. Next, “ATCACATTCCACGGTACACACTAAAAGAAAAATCAG [CACACA_site5907]”: 6.61.

Turning to “AGAGTACAAGTAAATACACACATATATATGAAAATA [CACACA_site1079]”, the “gcPBM binding intensity (ln)” value stood at 6.98.

In the case of TTTACATTTTAGGAAGTGCATATAATAAATACTATC, the “gcPBM binding intensity (ln)” value is 8.8. The figure for “CACATATATACACATACACACACACCCATACACCCA [CACACA_site8505]” is 7.22; for “TACATAAATACATACACACACATATAACCAATGTAG [CACACA_site5243]” it is 6.85; for “TATAATATGACAAGAAGTACATATATTTACATATAT [XGTACX_site1571]” it is 6.19.

In the case of “ATATAATATTTTAGAGTGCACCGATAACAATAAATA [GTGCAC_site9754]”, the “gcPBM binding intensity (ln)” value is 9.99.

“TTACAAAAAAAAAGGCGCGGATGGGGGCAATAGCAA [CACACA_negctrl_site238]”: the “gcPBM binding intensity (ln)” value came to 6.28. The figure for “TTTATATAGAAACACACACACAAAAAAAAAAAAAAA [CACACA_site2646]” is 6.54. The figure for “CAAAAAAAAAAAAAAACACACATTAAATTATAAAGA [CACACA_site2613]” is 6.18; for “TAATGTTTCAAAATTTAATATACTACAAATATTATA [TGCATGCA_negctrl_site336]” it is 5.97.

As for “ATGAACATCCAATATACACACATATATATTTATATT [CACACA_site829]”, the “gcPBM binding intensity (ln)” value was found to be 6.87. The figure for “TGTTATTCTGCATATACACACAAATAACAATTTAAA [CACACA_site6943]” is 6.92.

For the sequence TAAGATATAAAAAATGTGCACATTAAAGTATTAATT, the “gcPBM binding intensity (ln)” value was 10.5. The figure for “TCTTATGATGGAATGTTAAATATTACATTTTGTTTA [TGCATGCA_negctrl_site503]” is 6.03; for “TACTTTATTTTTTATACACACACAATATGTATATAT [CACACA_site9184]” it is 7.12.

Turning to “GTATTTCTTTAATATACACACACCAAAACAAAAAAA [CACACA_site579]”, the “gcPBM binding intensity (ln)” value was determined as 6.98.

Turning to “TTCTACATGAAGTTATAAATTAATATTTTAATTTAT [XGTACX_negctrl_site134]”, the “gcPBM binding intensity (ln)” value was 5.93. Next, “AATAAATAAATAAGTACACACATATAAATATAAATA [CACACA_site6271]”: 6.42. Consider “CAAGTATTATATTGCGCATGCAAAGAAGGACACAAA [TGCATGCA_site1024]”, for which the “gcPBM binding intensity (ln)” value came out at 7.74.

“TTATCTAGTACATACATACACACAACCATGTTATGA [CACACA_site3988]”: the “gcPBM binding intensity (ln)” value turned out to be 6.52.
